Laboratory results from the supplement of paper PMC8183993.
Where a name gives a salt, the structure may show the parent alone. ± gives the standard deviation of the averaged measurements. Whole data set: some 3,200 compounds, median “nuclei count (viability) relative to DMSO” near 99, cut for the lowest 2% near 16. Some of the results follow.

tested on: U2OS; assay: nuclei count (viability) relative to DMSO (% of DMSO); higher = more viable cells; conditions: 10 µM; 24 h
Procedure: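 Primary image-based screen in U2OS cells: compounds at 10 uM for 24 h, then a 1 h o-propargyl-puromycin (OPP) pulse, click labelling, and high-throughput microscopy. Mean cytoplasmic OPP intensity and nuclei count were normalised to DMSO wells within each plate (DMSO = 100) and averaged over triplicate plates.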

SMILES | nuclei count
Cc1nc(-c2ccc(OCC(C)C)c(C#N)c2)sc1C(=O)O [Febuxostat (Uloric)] | 109
O=C1C=CC(=O)C2=C1C1c3ccccc3C2c2ccccc21 | 101
CC(/C=C/C(=O)NO)=C\[C@@H](C)C(=O)c1ccc(N(C)C)cc1 [Trichostatin A] | 30.6 ± 2.3
Cc1cc(Nc2nc(N[C@@H](C)c3ccc(F)cc3)c(C#N)cc2F)n[nH]1 | 45.7
Cc1nc(Nc2ncc(C(=O)Nc3c(C)cccc3Cl)s2)cc(N2CCN(CCO)CC2)n1 | 58.7
CCN(CCO)CCCC(C)Nc1ccnc2cc(Cl)ccc12 (stereo not given) [Hydroxychloroquine] | 85.7
CCN(CCO)CCCC(C)Nc1ccnc2cc(Cl)ccc12 (stereo not given) [Hydroxychloroquine sulfate] | 96.1
CCOC(=O)c1c(CSc2ccccc2)n(C)c2cc(Br)c(O)c(CN(C)C)c12 [Arbidol HCl] | 95.6
CCN1CCN(Cc2ccc(-c3cc4c(N[C@H](C)c5ccccc5)ncnc4[nH]3)cc2)CC1 | 48.2 ± 8.2
C=C1C(=O)O[C@@H](CCC)[C@@H]1C(=O)O [Butyrolactone 3] | 111
CCOC(=O)NNc1nncc2ccccc12 [Todralazine hydrochloride] | 91.5
CCCCN1CCCCC1C(=O)Nc1c(C)cccc1C (stereo not given) [Bupivacaine hydrochloride] | 98.1
CC(COc1ccccc1)NC(C)C(O)c1ccc(O)cc1 (stereo not given) [Isoxsuprine hydrochloride] | 104
CC(C)(C)c1ccc(C(O)CCCN2CCC(C(O)(c3ccccc3)c3ccccc3)CC2)cc1 (stereo not given) [Terfenadine] | 103
C=C1/C(=C\C=C2/CCC[C@]3(C)[C@@H]([C@H](C)/C=C/[C@H](C)C(C)C)CC[C@@H]23)C[C@@H](O)C[C@@H]1O [Doxercalciferol (Hectorol)] | 93.5
C[C@H]1O[C@@H](Oc2c(-c3cc(O)c(O)c(O)c3)oc3cc(O)cc(O)c3c2=O)[C@@H](O)[C@@H](O)[C@@H]1O [Myricitrin (Myricitrine)] | 102
Cc1ccc2c(=O)c3cccc(CC(=O)O)c3oc2c1C | 110
Nc1ncnc2c1ncn2C1CCCO1 (stereo not given) | 95.9
Nc1ccn([C@@H]2O[C@H](CO)[C@@H](O)[C@@H]2O)c(=O)n1 [Cytarabine] | 56.2 ± 2
O=S1(=O)c2cccc3cccc(c23)N1CCCN1CCN(c2ccc(F)cc2)CC1 [Fananserin] | 104
Cc1[nH]c2ccccc2c1CCNCc1ccc(/C=C/C(=O)NO)cc1 [Panobinostat] | 23.7
Nc1ccc(S(=O)(=O)Nc2ccccn2)cc1 [Sulfapyridine] | 108
O=C(O)[C@H]1O[C@@H](Oc2cc3oc(-c4ccccc4)cc(=O)c3c(O)c2O)[C@H](O)[C@@H](O)[C@@H]1O [Baicalin] | 101
Cn1cc(-c2ccncc2)c(-c2ccc(OCc3ccc4ccccc4n3)cc2)n1 | 98.3
C[N+](C)(C)[C@@H](Cc1c[nH]c(=S)[nH]1)C(=O)[O-] [L-Ergothioneine] | 99

SMILES | nuclei count
COC1CCN(C(=O)c2cc(Cc3n[nH]c(=O)c4ccccc34)ccc2F)CC1 | 72.7
c1cncc(CN2CCC(n3ncc4c(N5CCOCC5)nc(-c5ccc6[nH]ccc6c5)nc43)CC2)c1 | 64.3
C=C(C)[C@@H](CC=C(C)C)C[C@@]12C[C@@H](CC=C(C)C)C(C)(C)[C@@](CC=C(C)C)(C(=O)C(C(=O)c3ccc(O)c(O)c3)=C1O)C2=O [Garcinol] | 105
O=C(O)c1c(Sc2ccccc2)c2cc(Cl)ccc2n1Cc1ccc(Cl)cc1 | 97.3
COc1cc([C@@H]2c3cc4c(cc3[C@@H](O[C@@H]3O[C@@H]5CO[C@@H](c6cccs6)O[C@H]5[C@H](O)[C@H]3O)[C@H]3COC(=O)[C@H]23)OCO4)cc(OC)c1O [Teniposide (Vumon)] | 15.5
O=c1[nH]cnc2c1ncn2[C@@H]1O[C@H](CO)[C@@H](O)[C@H]1O [Inosine] | 102
CCOc1ccccc1OC(c1ccccc1)C1CNCCO1 (stereo not given) [Reboxetine mesylate] | 104 ± 4.2
O=C1NC(=O)/C(=C/c2ccc3c(c2)OC(F)(F)O3)S1 | 109
CCCCOc1cc(CC2CNC(=O)N2)ccc1OC (stereo not given) | 100
Nc1ccc(C(=O)Nc2cccc(-c3nc(N4CCOCC4)c4oc5ncccc5c4n3)c2)cn1 | 60.6 ± 12
CN(C)CCCN1c2ccccc2Sc2ccc(Cl)cc21 [Chlorpromazine hydrochloride] | 79.4
CN(CC[C@@H](Oc1ccc(-c2ccccc2)cc1)c1ccc(F)cc1)CC(=O)O [ALX 5407 hydrochloride] | 94.2
O=C(NOCC(O)CO)c1cc(Br)c(F)c(F)c1Nc1ccc(I)cc1F (stereo not given) | 86.1
CN(C)CC(c1ccc(O)cc1)C1(O)CCCCC1 (stereo not given) [Desvenlafaxine Succinate] | 102
COc1ccc(S(=O)(=O)N(CCO)c2ccccc2CN(C)C/C=C/c2ccc(Cl)cc2)cc1 [KN-93 Phosphate] | 98.4
O=C(Nc1ccccc1Br)N[C@@H]1CCN(c2ccc(C(F)(F)F)cn2)C1 | 98.7
CCOC(=O)[C@@](C)(N)Cc1ccc(O)c(O)c1 [Methyldopate hydrochloride] | 92.8
O=C(c1ccccc1)c1ccc2n1CCC2C(=O)O (stereo not given) [Ketorolac tromethamine] | 90.6
COc1c(N2CCNC(C)C2)c(F)cc2c(=O)c(C(=O)O)cn(C3CC3)c12 (stereo not given) [Gatifloxacin] | 110
CNC(=O)[C@H]1O[C@@H](n2cnc3c(NCc4cccc(I)c4)nc(Cl)nc32)[C@H](O)[C@@H]1O | 103
CCN(CC)CCCC(C)Nc1nc(C)cc(Nc2ccc3nc(C)cc(N)c3c2)n1 (stereo not given) | 99.44 ± 0.99
O=C(C[S+]([O-])Cc1ccco1)NC/C=C\COc1cc(CN2CCCCC2)ccn1 (stereo not given) [Lafutidine] | 102
O=[N+]([O-])c1cccc2c[nH]nc12 | 102
C#CCC(Cc1cnc2nc(N)nc(N)c2n1)c1ccc(C(=O)N[C@@H](CCC(=O)O)C(=O)O)cc1 (stereo not given in full) [Pralatrexate (Folotyn)] | 92
CCN[C@@H]1C[C@H](N)[C@@H](O[C@H]2OC(CN)=CC[C@H]2N)[C@H](O)[C@H]1O[C@H]1OC[C@](C)(O)[C@H](NC)[C@H]1O [Netilmicin Sulfate] | 96.5
